# According to the supplement of paper PMC8728848:
# The other results are listed elsewhere or left out.
# B1: PX9961A-pdi-456-24-456 (Parabacteroides distasonis) (protein)
# chain: KTSSTQLPTIDAISSVADLTNAVNGVYEQQATEVGSYGAEFTLLADLRSGDFQSISTVNHAGPMYRYQTGKNDEMVYSFYKLFYNSLARLNNVLAAAENLEGADVDILKGELYAMRALYHFDLARVFAKLPSTTDMNDLGIVLSTEVYPTDYIGTRATLQQTYDQILKDIETALPLLSKDKQTGHINYWGALAIRARAYLYLEKNKEALADCKEIIASSPYKLYTRDEYIGAWDKEGTNEAIFEILVTPNYNAQRNSIGYFTHASGYGECAATESFLEELAKHPGDIRTELFAKETDNGYDGTYPQKYKGRDGQIYVNNPKVVRLSEVYLIAAEAALKAGDTSAAAGYMNTLRKNRIENYTDVASITLDDILLERRLELFTEGHTAWDAWRNGKSVNNKFVGEVKPGDYRTIMAIPIGEITVSRGQLIQNPGY
# Experiments:
# Assay in all cases: glycan array binding signal (z-score within array); higher = stronger binding
# Details in all cases: glycan notation: IUPAC condensed, linker removed
# [1] = molecular target: GlcNAc(b1-4)GlcNAc(b1-4)GlcNAc(b1-4)GlcNAc(b1-4)GlcNAc
# Procedure, shortened: (§1)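 Glycan array data were curated from 3228 arrays in the Consortium for Functional Glycomics database and kept only where the protein sequence was available. Glycan names were converted to IUPAC-condensed notation, and columns mapping to the same glycan were averaged. The binding signal is a within-array Z-score, averaged across arrays of the same protein sequence at different concentrations or buffers and across linkers. Negative Z-scores can be read as non-binding.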
# [2] = molecular target: GlcNAc(b1-4)GlcNAc(b1-4)GlcNAc(b1-4)GlcNAc(b1-4)GlcNAc(b1-4)GlcNAc
# Procedure, shortened: as §1
# [3] = molecular target: GlcNAc(b1-4)[GlcNAc(b1-6)]GalNAc
# Procedure, shortened: as §1
# [4] = molecular target: GlcNAc(b1-6)Gal(b1-4)GlcNAc
# Procedure, shortened: as §1
# GlcNAc(b1-6)GalNAc = molecular target: GlcNAc(b1-6)GalNAc
# Procedure, shortened: as §1
# [5] = molecular target: GlcNAc6S(b1-3)Gal(b1-4)GlcNAc
# Procedure, shortened: as §1
# Kdn(a2-3)Gal(b1-3)GalNAc = molecular target: Kdn(a2-3)Gal(b1-3)GalNAc
# Procedure, shortened: as §1
# Kdn(a2-3)Gal(b1-3)GlcNAc = molecular target: Kdn(a2-3)Gal(b1-3)GlcNAc
# Procedure, shortened: as §1
# Kdn(a2-3)Gal(b1-4)Glc = molecular target: Kdn(a2-3)Gal(b1-4)Glc
# Procedure, shortened: as §1
# Kdn(a2-3)Gal(b1-4)GlcNAc = molecular target: Kdn(a2-3)Gal(b1-4)GlcNAc
# Procedure, shortened: as §1
# [6] = molecular target: Kdn(a2-3)Gal(b1-4)[Fuc(a1-3)]GlcNAc
# Procedure, shortened: as §1
# Kdn(a2-6)Gal(b1-4)GlcNAc = molecular target: Kdn(a2-6)Gal(b1-4)GlcNAc
# Procedure, shortened: as §1
# [7] = molecular target: Man(a1-2)Man(a1-2)Man(a1-3)Man
# Procedure, shortened: as §1
# [8] = molecular target: Man(a1-2)Man(a1-2)Man(a1-6)[Man(a1-3)]Man
# Procedure, shortened: as §1
# Man(a1-2)Man(a1-3)Man = molecular target: Man(a1-2)Man(a1-3)Man
# Procedure, shortened: as §1
# [9] = molecular target: Man(a1-2)Man(a1-3)[Man(a1-2)Man(a1-6)]Man
# Procedure, shortened: as §1
# [10] = molecular target: Man(a1-2)Man(a1-3)[Man(a1-2)Man(a1-6)]Man(a1-6)[Man(a1-2)Man(a1-2)Man(a1-3)]Man
# Procedure, shortened: as §1
# [11] = molecular target: Man(a1-2)Man(a1-3)[Man(a1-2)Man(a1-6)]Man(a1-6)[Man(a1-2)Man(a1-2)Man(a1-3)]Man(b1-4)GlcNAc(b1-4)GlcNAc
# Procedure, shortened: as §1
# [12] = molecular target: Man(a1-2)Man(a1-3)[Man(a1-6)]Man(a1-6)[Man(a1-2)Man(a1-3)]Man(b1-4)GlcNAc(b1-4)GlcNAc
# Procedure, shortened: as §1
# [13] = molecular target: Man(a1-2)Man(a1-6)[Man(a1-3)]Man(a1-6)[Man(a1-2)Man(a1-2)Man(a1-3)]Man
# Procedure, shortened: as §1
# [14] = molecular target: Man(a1-2)Man(a1-6)[Man(a1-3)]Man(a1-6)[Man(a1-2)Man(a1-2)Man(a1-3)]Man(b1-4)GlcNAc(b1-4)GlcNAc
# Procedure, shortened: as §1
# Man(a1-3)[Man(a1-6)]Man = molecular target: Man(a1-3)[Man(a1-6)]Man
# Procedure, shortened: as §1
# [15] = molecular target: Man(a1-3)[Man(a1-6)]Man(a1-6)[Man(a1-2)Man(a1-3)]Man(b1-4)GlcNAc(b1-4)GlcNAc
# Procedure, shortened: as §1
# [16] = molecular target: Man(a1-3)[Man(a1-6)]Man(a1-6)[Man(a1-3)]Man
# Procedure, shortened: as §1
# [17] = molecular target: Man(a1-3)[Man(a1-6)]Man(a1-6)[Man(a1-3)]Man(b1-4)GlcNAc(b1-4)GlcNAc
# Procedure, shortened: as §1
# [18] = molecular target: Man(a1-3)[Man(a1-6)]Man(b1-4)GlcNAc(b1-4)GlcNAc
# Procedure, shortened: as §1
# [19] = molecular target: Man(a1-3)[Man(a1-6)]Man(b1-4)GlcNAc(b1-4)[Fuc(a1-6)]GlcNAc
# Procedure, shortened: as §1
# Man(a1-6)Man = molecular target: Man(a1-6)Man
# Procedure, shortened: as §1
# Man(b1-4)GlcNAc = molecular target: Man(b1-4)GlcNAc
# Procedure, shortened: as §1
# MurNAc(b1-4)GlcNAc = molecular target: MurNAc(b1-4)GlcNAc
# Procedure, shortened: as §1
# Neu5Ac(a2-3)Gal = molecular target: Neu5Ac(a2-3)Gal
# Procedure, shortened: as §1
# [20] = molecular target: Neu5Ac(a2-3)Gal(b1-3)GalNAc
# Procedure, shortened: as §1
# [21] = molecular target: Neu5Ac(a2-3)Gal(b1-3)GalNAc(b1-3)Gal(a1-4)Gal(b1-4)Glc
# Procedure, shortened: as §1
# [22] = molecular target: Neu5Ac(a2-3)Gal(b1-3)GalNAc(b1-4)[Neu5Ac(a2-3)]Gal(b1-4)Glc
# Procedure, shortened: as §1
# [23] = molecular target: Neu5Ac(a2-3)Gal(b1-3)GalNAc(b1-4)[Neu5Ac(a2-8)Neu5Ac(a2-3)]Gal(b1-4)Glc
# Procedure, shortened: as §1
# [24] = molecular target: Neu5Ac(a2-3)Gal(b1-3)GalNAc6S
# Procedure, shortened: as §1
# [25] = molecular target: Neu5Ac(a2-3)Gal(b1-3)GlcNAc
# Procedure, shortened: as §1
# [26] = molecular target: Neu5Ac(a2-3)Gal(b1-3)GlcNAc(b1-2)Man
# Procedure, shortened: as §1
# [27] = molecular target: Neu5Ac(a2-3)Gal(b1-3)GlcNAc(b1-2)Man(a1-3)[GlcNAc(b1-4)][Neu5Ac(a2-3)Gal(b1-3)GlcNAc(b1-2)Man(a1-6)]Man(b1-4)GlcNAc(b1-4)GlcNAc
# Procedure, shortened: as §1
# [28] = molecular target: Neu5Ac(a2-3)Gal(b1-3)GlcNAc(b1-2)Man(a1-3)[Neu5Ac(a2-3)Gal(b1-3)GlcNAc(b1-2)Man(a1-6)]Man(b1-4)GlcNAc(b1-4)GlcNAc
# Procedure, shortened: as §1
# [29] = molecular target: Neu5Ac(a2-3)Gal(b1-3)GlcNAc(b1-3)Gal(b1-3)GlcNAc
# Procedure, shortened: as §1
# [30] = molecular target: Neu5Ac(a2-3)Gal(b1-3)GlcNAc(b1-3)Gal(b1-4)GlcNAc
# Procedure, shortened: as §1
# [31] = molecular target: Neu5Ac(a2-3)Gal(b1-3)GlcNAc(b1-3)GalNAc
# Procedure, shortened: as §1
# [32] = molecular target: Neu5Ac(a2-3)Gal(b1-3)GlcNAc(b1-4)Gal(b1-4)Glc
# Procedure, shortened: as §1
# [33] = molecular target: Neu5Ac(a2-3)Gal(b1-3)GlcNAc(b1-6)GalNAc
# Procedure, shortened: as §1
binder,measurement,setting,value
B1,glycan array binding signal (z-score),[1],-0.251
same,glycan array binding signal (z-score),[2],-0.069
same,glycan array binding signal (z-score),[3],-0.316
same,glycan array binding signal (z-score),[4],-0.288
same,glycan array binding signal (z-score),GlcNAc(b1-6)GalNAc,-0.224
same,glycan array binding signal (z-score),[5],0.048
same,glycan array binding signal (z-score),Kdn(a2-3)Gal(b1-3)GalNAc,0.217
same,glycan array binding signal (z-score),Kdn(a2-3)Gal(b1-3)GlcNAc,-0.326
same,glycan array binding signal (z-score),Kdn(a2-3)Gal(b1-4)Glc,-0.271
same,glycan array binding signal (z-score),Kdn(a2-3)Gal(b1-4)GlcNAc,0.468
same,glycan array binding signal (z-score),[6],-0.296
same,glycan array binding signal (z-score),Kdn(a2-6)Gal(b1-4)GlcNAc,-0.188
same,glycan array binding signal (z-score),[7],-0.458
same,glycan array binding signal (z-score),[8],0.201
same,glycan array binding signal (z-score),Man(a1-2)Man(a1-3)Man,-0.473
same,glycan array binding signal (z-score),[9],0.015
same,glycan array binding signal (z-score),[10],-0.616
same,glycan array binding signal (z-score),[11],-0.159
same,glycan array binding signal (z-score),[12],0.028
same,glycan array binding signal (z-score),[13],-0.433
same,glycan array binding signal (z-score),[14],-0.237
same,glycan array binding signal (z-score),Man(a1-3)[Man(a1-6)]Man,-0.486
same,glycan array binding signal (z-score),[15],-0.3
same,glycan array binding signal (z-score),[16],-0.024
same,glycan array binding signal (z-score),[17],-0.014
same,glycan array binding signal (z-score),[18],-0.44
same,glycan array binding signal (z-score),[19],0.227
same,glycan array binding signal (z-score),Man(a1-6)Man,0.042
same,glycan array binding signal (z-score),Man(b1-4)GlcNAc,-0.455
same,glycan array binding signal (z-score),MurNAc(b1-4)GlcNAc,-0.117
same,glycan array binding signal (z-score),Neu5Ac(a2-3)Gal,0.205
same,glycan array binding signal (z-score),[20],-0.099
same,glycan array binding signal (z-score),[21],0.851
same,glycan array binding signal (z-score),[22],-0.189
same,glycan array binding signal (z-score),[23],0.175
same,glycan array binding signal (z-score),[24],0.007
same,glycan array binding signal (z-score),[25],-0.355
same,glycan array binding signal (z-score),[26],-0.384
same,glycan array binding signal (z-score),[27],-0.511
same,glycan array binding signal (z-score),[28],-0.512
same,glycan array binding signal (z-score),[29],-0.139
same,glycan array binding signal (z-score),[30],-0.604
same,glycan array binding signal (z-score),[31],-0.259
same,glycan array binding signal (z-score),[32],-0.437
same,glycan array binding signal (z-score),[33],0.343
